Laboratory results: patent US12138303B2, “Staphylococcus pseudintermedius virulence factor compositions” (UNIVERSITY OF TENNESSEE RESEARCH FOUNDATION, priority 2017, dated 2024)

Experiments:
clinically normal dogs = assay: Antibody response of dogs injected with SpsQ-M (ELISA of sera); format: in vivo, dog; conditions: 100 μg subcutaneous, three weekly injections; sera days −7, 8, 15, 29; versus pre-injection sera
Experimental: Recombinant SpsQ-M (SEQ ID NO:2) at 100 μg/0.5 cc in phosphate buffered saline (PBS) (pH 7.2) was injected in the lateral thorax by the subcutaneous route, into three clinically normal dogs. Injections were given once every 7 days for a total of three injections with a control dog receiving PBS (pH 7.2) only. Blood (6 cc) was collected from a jugular vein using a 20 g needle and 12 cc syringe 4 times, on days −7, 8, 15 and 29. The collected blood was left undisturbed at room temperature for 30 min followed by centrifugation at 2,000×g for 10 min in a refrigerated centrifuge.
To detect a specific antibody response against SpsQ-M in injected dogs, recombinant S. pseudintermedius proteins and commercial SpA were coated on ELISA plates as previously described and incubated with two-fold serially diluted serum from injected dogs (1/1000-1/32000). Bound IgG was detected using HRP-goat anti-dog IgG-heavy and light chain (Bethyl Laboratories, Inc., USA Cat No. A40-123-1) with serum from uninjected dogs used as negative controls. The experiment was run in duplicate and a p-value of <0.05 was considered significant.

dog IgG = assay: ELISA reactivity with dog serum / dog IgG; format: binding; conditions: serum 1:2000; compared to recombinant wild-type SpsQ and SpA
Experimental: To test the reactivity of serum from a dog with chronic pyoderma, S. aureus SpA and S. pseudintermedius SpsQ and SpsQ-M were coated on ELISA plates (Corning, USA Cat No. 3590) at 2 μg/ml in PBS. They were incubated with serum at a dilution of 1:2000. Bound IgG, IgM, and IgA were detected by HRP-goat anti-dog IgG-heavy and light chain (Bethyl Laboratories, Inc., USA Cat No. A40-123-1), HRP-goat anti-dog IgM μ chain (Bethyl Laboratories, Inc., USA Cat No. A40-116-2), HRP-goat anti-dog IgA (Bethyl Laboratories, Inc., USA Cat No. A40-104P) at a dilution of 1:8000 in PBS-T. Dog whole IgG molecule (Rockland, USA Cat No. 004-0102-1000) was used for comparison to measure non-specific IgG binding.

SpsQ-M: attenuated non-toxigenic S. pseudintermedius protein A with Q5K, Q6K, D32A, D33A in each Ig binding domain
antibodies against S. pseudintermedius SpsQ-M and SpsQ in sera of injected dogs (clinically normal dogs): detected on day 15 and reached the highest level on day 29 | reactivity of sera from a dog with a history of chronic pyoderma (dog IgG): significantly lower reactivity
